Test results from publication PMC7290032.
Results are given in words; binding and its absence hold for the method and conditions named. In cells and extracts the contact can be indirect. Some entries that bind do so weakly or less than the wild type.

Chains of the proteins cited; added tags and fusions are not shown.
UniProt P27694: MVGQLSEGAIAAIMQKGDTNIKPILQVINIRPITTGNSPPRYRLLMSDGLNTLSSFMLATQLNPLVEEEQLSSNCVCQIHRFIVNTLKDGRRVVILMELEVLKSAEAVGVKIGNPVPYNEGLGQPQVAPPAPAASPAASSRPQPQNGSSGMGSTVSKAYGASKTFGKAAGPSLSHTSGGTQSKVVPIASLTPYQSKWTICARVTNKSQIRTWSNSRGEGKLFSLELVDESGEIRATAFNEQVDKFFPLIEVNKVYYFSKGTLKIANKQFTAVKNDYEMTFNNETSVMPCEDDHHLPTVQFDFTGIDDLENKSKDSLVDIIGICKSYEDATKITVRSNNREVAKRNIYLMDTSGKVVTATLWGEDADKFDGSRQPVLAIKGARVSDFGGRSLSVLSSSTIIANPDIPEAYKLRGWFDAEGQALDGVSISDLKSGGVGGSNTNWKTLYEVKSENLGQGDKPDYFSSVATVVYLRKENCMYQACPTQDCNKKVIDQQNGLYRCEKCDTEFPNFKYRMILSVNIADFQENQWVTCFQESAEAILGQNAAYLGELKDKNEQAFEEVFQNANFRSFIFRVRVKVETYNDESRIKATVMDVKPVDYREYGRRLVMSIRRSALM

Molecular target: HA-RPA1 (UniProt P27694)
Experiment: co-IP; anti-HA agarose from lysates of HEK293T cells expressing the HA-tagged bait; 50 mM Tris-HCl pH 7.5, 1% NP40, 150 mM NaCl, 4 h at 4 °C; western blot of endogenous partners

binding: binds
B1: MCM8IP (endogenous) (protein, UniProt Q8N3J3 1-647)
chain: MACSLQKLFAVEEEFEDEDFLSAVEDAENRFTGSLPVNAGRLRPVSSRPQETVQAQSSRLLLLHPTAPSEALGLPDLDLCLPASSTPSADSRPSCIGAAPLRPVSTSSSWIGNQRRVTVTEVLRETARPQSSALHPLLTFESQQQQVGGFEGPEQDEFDKVLASMELEEPGMELECGVSSEAIPILPAQQREGSVLAKKARVVDLSGSCQKGPVPAIHKAGIMSAQDESLDPVIQCRTPRPPLRPGAVGHLPVPTALTVPTQQLHWEVCPQRSPVQALQPLQAARGTIQSSPQNRFPCQPFQSPSSWLSGKAHLPRPRTPNSSCSTPSRTSSGLFPRIPLQPQAPVSSIGSPVGTPKGPQGALQTPIVTNHLVQLVTAASRTPQQPTHPSTRAKTRRFPGPAGILPHQQSGRSLEDIMVSAPQTPTHGALAKFQTEIVASSQASVEEDFGRGPWLTMKSTLGLDERDPSCFLCTYSIVMVLRKQAALKQLPRNKVPNMAVMIKSLTRSTMDASVVFKDPTGEMQGTVHRLLLETCQNELKPGSVLLLKQIGVFSPSLRNHYLNVTPNNLVHIYSPDSGDGSFLKPSQPFPKDSGSFQHDVAAKPEEGFRTAQNLEAEASPEEELPEADDLDGLLSELPEDFFCGTSS
